Results are given in words; binding and its absence hold for the method and conditions named. Binding seen in cells or lysates may run through a third protein. Some entries that bind do so weakly or less than the wild type. For some assays here: Tags and fused reporters may be left off the sequences shown. Each block holds one molecule with its values, some of them ahead of it.
Key:
[1] = biological target: StrepII-Myc-3xHA-PRAME (K562 stable line) (human) (UniProt P78395); test: co-IP; immunoblot of TAG-PRAME, TAG-OSGEP or TAG-LAGE3 complexes purified from K562 cells (Fig. 2, Fig. 5B); mock purification on wild type cells; TAG-OSGEP and TAG-LAGE3 also with stable knock-down of endogenous PRAME
[2] = biological target: T1, TAG-LAGE3 (K562 stable line) (human) (UniProt Q14657); test: as above
T1 sequence: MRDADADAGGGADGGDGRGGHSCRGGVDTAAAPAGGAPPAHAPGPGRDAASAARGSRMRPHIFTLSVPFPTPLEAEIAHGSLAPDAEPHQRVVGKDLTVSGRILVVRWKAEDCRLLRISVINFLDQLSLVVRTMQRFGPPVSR

Amino acid sequences for entries named in this document (tags omitted).
UniProt Q15370: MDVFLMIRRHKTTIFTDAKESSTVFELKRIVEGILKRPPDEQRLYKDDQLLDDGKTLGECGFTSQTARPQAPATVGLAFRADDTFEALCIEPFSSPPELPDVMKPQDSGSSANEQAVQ

[3] = biological target: T2, TAG-OSGEP (K562 stable line) (human) (UniProt Q9NPF4); test: as above
T2 sequence: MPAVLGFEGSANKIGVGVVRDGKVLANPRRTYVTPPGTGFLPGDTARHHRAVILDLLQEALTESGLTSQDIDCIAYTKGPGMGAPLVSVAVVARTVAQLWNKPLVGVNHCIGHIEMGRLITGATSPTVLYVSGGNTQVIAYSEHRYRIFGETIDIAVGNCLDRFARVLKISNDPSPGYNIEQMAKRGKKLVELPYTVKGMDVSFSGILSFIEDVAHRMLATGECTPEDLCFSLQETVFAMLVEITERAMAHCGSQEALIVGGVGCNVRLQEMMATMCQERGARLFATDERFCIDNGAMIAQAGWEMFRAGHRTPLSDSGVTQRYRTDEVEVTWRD

[4] = biological target: TAG-PRAME (transient, HEK293T) (human) (UniProt P78395); test: co-IP; transient transfection of 293T cells; TAG-PRAME (wild type or M2) precipitated with rabbit HA antibody; TTE-tagged proteins detected with BB2 (TY1 tag)
FLAG-PRAME (human) = FLAG-PRAME (human) (UniProt P78395); test: co-IP; Sf21 cells co-infected with baculoviruses for FLAG-PRAME and combinations of the four EKC subunits; anti-FLAG immunoprecipitation; lysates and eluates by western blotting

Molecule: Elongin B (TCEB2 Transcription elongation factor B polypeptide 2) (from UniProt Q15370 1-118)
binding [1]: binds

B3: TTE-LAGE3 (protein, UniProt Q14657 1-143)
chain: T1 sequence
binding [4]: binds

B4: HA-LAGE3 (protein, UniProt Q14657 1-143)
chain: T1 sequence
binding (FLAG-PRAME (human)): binds

Now from value to molecule:

binding [1]: no binding | binding [2]: binds
Molecule: endogenous TPRKB (TP53RK-binding protein) (from UniProt Q9Y3C4 1-175)

binding [3]: binds
Molecule: endogenous PRAME (from UniProt P78395 1-509)

binding [4]: binds
B1: TTE-OSGEP (protein, UniProt Q9NPF4 1-335)
chain: T2 sequence

binding (FLAG-PRAME (human)): binds
B2: c-Myc-OSGEP (protein, UniProt Q9NPF4 1-335)
chain: T2 sequence

Reference: publication PMC3418287
